Reference: article PMC9527342, “An in vitro assay for enzymatic studies on human ALG13/14 heterodimeric UDP-N-acetylglucosamine transferase” (Frontiers in Cell and Developmental Biology, 2022)
Results are given in words; binding and its absence hold for the method and conditions named. For some assays here: In cells and extracts the contact can be indirect. Some entries that bind do so weakly or less than the wild type. Tags and fused reporters may be left off the sequences shown. Values belong to the binder of their own block, whether it stands above or below them.

Tests used:
[1] = biological target: T1, FLAG-ALG13-iso2 (human ALG13 isoform 2) (human) (UniProt Q9NP73); experiment: co-IP; detergent extract (1% Triton X-100) of washed membranes of E. coli co-expressing FLAG-ALG13-iso2 and 6His-ALG14; precipitated with Ni-NTA His binding resin or with anti-FLAG Affinity Matrix; blotted with anti-FLAG or anti-His
T1 sequence: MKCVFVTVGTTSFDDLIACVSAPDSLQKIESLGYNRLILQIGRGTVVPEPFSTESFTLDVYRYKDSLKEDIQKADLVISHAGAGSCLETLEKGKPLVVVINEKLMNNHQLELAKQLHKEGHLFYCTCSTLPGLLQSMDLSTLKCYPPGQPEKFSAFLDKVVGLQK

[2] = biological target: T2, 3HA-ALG13 iso1 (human ALG13 isoform 1) (human) (UniProt Q9NP73); experiment: co-IP; HEK293 cells co-transfected with HA-tagged ALG13 isoform and FLAG-tagged ALG14; protein extract in HEPES buffer with 1% detergent; anti-HA rabbit polyclonal antibody and Protein A + G Agarose; blotted with anti-FLAG
T2 sequence: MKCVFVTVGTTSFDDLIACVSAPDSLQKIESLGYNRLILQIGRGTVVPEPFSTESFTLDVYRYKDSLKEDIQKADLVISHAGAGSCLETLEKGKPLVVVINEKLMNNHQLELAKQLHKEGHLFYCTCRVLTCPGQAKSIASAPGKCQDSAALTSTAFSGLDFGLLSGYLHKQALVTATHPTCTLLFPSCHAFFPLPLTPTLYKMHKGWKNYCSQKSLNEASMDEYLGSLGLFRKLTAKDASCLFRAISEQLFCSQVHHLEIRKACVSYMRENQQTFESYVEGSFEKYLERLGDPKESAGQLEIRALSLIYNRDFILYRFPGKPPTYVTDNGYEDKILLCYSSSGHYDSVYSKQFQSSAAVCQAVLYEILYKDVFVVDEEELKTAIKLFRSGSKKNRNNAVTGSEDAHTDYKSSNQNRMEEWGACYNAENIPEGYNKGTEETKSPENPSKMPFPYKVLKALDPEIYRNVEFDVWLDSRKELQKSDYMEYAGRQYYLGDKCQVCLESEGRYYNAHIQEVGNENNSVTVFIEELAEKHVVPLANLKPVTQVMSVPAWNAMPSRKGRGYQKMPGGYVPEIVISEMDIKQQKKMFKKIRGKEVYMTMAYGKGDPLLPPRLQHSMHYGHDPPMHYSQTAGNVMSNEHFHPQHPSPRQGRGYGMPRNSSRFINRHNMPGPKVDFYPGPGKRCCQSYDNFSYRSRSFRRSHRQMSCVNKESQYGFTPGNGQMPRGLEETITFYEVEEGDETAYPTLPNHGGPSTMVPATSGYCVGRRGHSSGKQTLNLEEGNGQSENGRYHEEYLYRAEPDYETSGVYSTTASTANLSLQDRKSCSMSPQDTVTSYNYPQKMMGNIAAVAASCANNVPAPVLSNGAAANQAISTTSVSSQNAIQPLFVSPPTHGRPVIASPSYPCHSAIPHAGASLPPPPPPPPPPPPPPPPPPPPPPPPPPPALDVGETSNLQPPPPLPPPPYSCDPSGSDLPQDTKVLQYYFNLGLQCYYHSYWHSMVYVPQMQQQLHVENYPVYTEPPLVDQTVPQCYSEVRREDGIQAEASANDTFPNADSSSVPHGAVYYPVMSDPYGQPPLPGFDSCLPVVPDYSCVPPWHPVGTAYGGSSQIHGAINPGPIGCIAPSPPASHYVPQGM

[3] = biological target: T3, 3HA-ALG13 iso2 (human ALG13 isoform 2) (human) (UniProt Q9NP73); experiment: as above
T3 sequence: T1 sequence

[4] = biological target: T4, 6His-ALG14 (human ALG14) (human) (UniProt Q96F25); experiment: native gel or EMSA; complex co-expressed in E. coli and co-purified from the detergent extract (HisTrap HP, then anti-FLAG Affinity Matrix, FLAG peptide elution); Blue/Clear native PAGE and SDS-PAGE, silver staining; both purified
T4 sequence: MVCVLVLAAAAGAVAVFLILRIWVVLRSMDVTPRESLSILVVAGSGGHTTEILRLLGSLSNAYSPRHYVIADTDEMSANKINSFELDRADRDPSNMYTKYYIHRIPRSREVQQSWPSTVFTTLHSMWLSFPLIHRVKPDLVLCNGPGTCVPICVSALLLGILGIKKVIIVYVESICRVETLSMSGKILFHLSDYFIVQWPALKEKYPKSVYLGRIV

[5] = biological target: T4, 6His-ALG14 (human ALG14) (human); experiment: co-IP; detergent extract (1% Triton X-100) of washed membranes of E. coli co-expressing FLAG-ALG13-iso2 and 6His-ALG14; precipitated with Ni-NTA His binding resin or with anti-FLAG Affinity Matrix; blotted with anti-FLAG or anti-His

- binding [1]: binds
B1: 6His-ALG14 (human ALG14) (protein, UniProt Q96F25 1-216)
chain: T4 sequence

- binding [2]: no binding
- binding [3]: binds
B2: ALG14-3FLAG (human ALG14) (protein, UniProt Q96F25 1-216)
chain: T4 sequence

- binding [4]: binds
- binding [5]: binds
B3: FLAG-ALG13-iso2 (human ALG13 isoform 2) (protein, UniProt Q9NP73-2 1-165)
chain: T1 sequence
